The whole screen tested about 410,000 compounds, of which about 7,200 (1.8%) were called active. Inconclusive results, whose numbers are uncertain, are shown with a selection of clear calls. Calls come from the whole dose curve; as a rule, active = well fitted activation curve with a large enough effect; inconclusive = small, poorly fitted or top-dose-only effect, or another doubt; inactive = no such curve, though single readings can be large or run the other way. Potencies of inconclusive entries are left out as doubtful fits.
Assay: qHTS of TDP-43 Inhibitors; note: nearly all actives have a fitted effect of over 50% in size; for growth rescue (activation): % of control where 0% means no effect
Conditions: TDP-43 expressing yeast growth rescue, BacTiter-Glo, 24 h; growth rescue (activation): at 46.1 µM (top of the series) unless noted
Excerpt: The goal of this project is to identify new chemical probes capable of reversing the toxicity associated with TDP-43 which is associated with frontotemporal lobar degeneration and amyotrophic lateral sclerosis. These compounds will provide a complementary approach to deciphering the tangled mechanisms of toxicity and protection that we have uncovered through genome-wide genetic screens and are beginning to uncover in a large-scale proteomics analysis with mass spectroscopy.
To this end, a miniaturized assay was developed to be screened against the Molecular Libraries Small Molecule Repository (MLSMR) to discover TDP-43 inhibitors. Please note that in the set-up this yeast-based assay compounds that inhibit as TDP-43, have a read-out as activators.
NIH Chemical Genomics Center [NCGC]
NIH Molecular Libraries Probe Centers Network [MLPCN]
Assay Submitter (PI): Susan Lindquist, Whitehead Institute/MIT
Dispense 2.5 microL yeast galactose medium per 1536-well plate, pin compound, dispense 2.5 microL TDP-43 expressing yeast in galactose medium at OD600=0.02 (pregrown in raffinose medium to mid-log phase) per well, incubate for 24 hr at 30 deg C, and cell growth will be measured using 5 microL of Bactiter/Glo reagent to entire plate and read using Luminescence Protocol in ViewLux.
In the case of O=[N+]([O-])c1cc(-c2ccc(/C=N/n3cnnc3)o2)ccc1Cl, the Potency is reported as inconclusive [activator, full curve].
For CCOC(=O)C1CCCN(C(=O)c2cccc(Cl)c2)CC1 (stereo not given), the Potency was inconclusive [activator, full curve].
In the case of CCOC(=O)/C=C/C(=O)OCC(=O)N1CCN(C(=O)c2ccco2)CC1, the “growth rescue (activation)” value is reported as inactive: -4.28%.
In the case of CN(c1ccccc1)c1nc(N)c([N+](=O)[O-])c(N2CCCCCC2)n1, the Potency is reported as inconclusive [activator, single point].
In the case of Fc1ccc(-c2nc3c(Cl)cc(C(F)(F)F)cn3c2Cc2cccc(F)c2)cc1, the “growth rescue (activation)” value is reported as inactive: 1.37%.
For CCOc1cc(S(=O)(=O)N2CCCCC2)ccc1Cl, the Potency was inconclusive [activator, partial curve].
In the case of CCOc1ccc2c(c1)nc(SCC(=O)c1cccs1)n2C, the Potency is reported as inconclusive [activator, partial curve].
For COc1ccc(C(=O)N2CCN(S(=O)(=O)c3ccc(C)cc3C)CC2)cc1OC, the Potency was inconclusive [activator, partial curve].
In the case of CCCCC[C@@H]1C=C(C(=O)O)[C@H](c2ccc(C)cc2)N1S(=O)(=O)c1ccc(C)cc1, the Potency is reported as inconclusive [activator, single point].
For O=C(Nc1ccccc1OC(=O)c1ccccc1)c1ccccc1, the Potency was inconclusive [activator, full curve, poor fit].
For C/C(=N\NC(=O)c1cccnc1)c1ccc(Br)cc1, the “growth rescue (activation)” value was inactive: -8.86%.
For CCN(C(=O)COC(=O)/C=C/c1ccccc1Cl)c1c(N)n(Cc2ccccc2)c(=O)[nH]c1=O, the Potency was inconclusive [activator, partial curve].
In the case of CC(C)(C)c1ccc(OCC(=O)NNC(=S)NC(=O)c2ccccc2[N+](=O)[O-])c(Br)c1, the Potency is reported as active: 17.8 µM.
In the case of COc1cccc(NCCC(=O)c2cccc([N+](=O)[O-])c2)c1, the Potency is reported as inconclusive [activator, single point].
For Cc1sc(NC(=O)c2ccco2)nc1-c1ccc2c(c1)CC(C)N2C(=O)C1CC1 (stereo not given), the Potency was inconclusive [activator, single point].
For O=C(CN1C(=O)c2cccnc2Oc2ccc(Cl)cc21)NCCc1ccccc1, the Potency was inconclusive [activator, full curve, poor fit].
In the case of COc1ccc(-c2oc3ccccc3c2C(=O)Oc2ccccc2)cc1, the Potency is reported as active: 3.55 µM.
In the case of CCOC(=O)C1CCN(C(=O)Cn2ncc3c4ccccc4n(Cc4ccc(F)cc4)c3c2=O)CC1, the growth rescue (activation) is reported as inactive: 0% [at 9.22 µM].
With CSC1=NN(c2ccccc2)CN(c2ccccc2)N1C the Potency was inconclusive [activator, full curve, poor fit].
For COc1ccc(Nc2nc(NCc3ccco3)nc(N/N=C/c3ccccc3)n2)cc1, the Potency was inconclusive [activator, single point].
With Brc1ccc(OCc2nc(-c3ccccn3)n[nH]2)cc1 the Potency was active: 15.8 µM.
With CC(C)(C)OC(=O)[C@H]1[C@H](c2ccc([N+](=O)[O-])cc2)C2(C(=O)c3ccccc3C2=O)C2c3ccccc3C=NN21 (stereo not given in full) the Potency was inconclusive [activator, partial curve].
For CCOc1ccc(C(=O)Nc2cccc(NC(=O)c3ccc(C(C)(C)C)cc3)c2)cc1Br, the Potency was inconclusive [activator, partial curve].
In the case of COc1ccc(C2Nc3cccc4cccc(c34)N2)cc1Br, the Potency is reported as inconclusive [activator, partial curve].
In the case of CC(=O)c1cccc(NC(=O)C2CCCN(C(=O)c3cnn(-c4ccccc4)c3-n3cccc3)C2)c1 (stereo not given), the “growth rescue (activation)” value is reported as inactive: 10.5%.
With COCCNC(=O)C1CCCN(C(=O)COc2ccc(Cl)cc2Cl)CC1 (stereo not given) the growth rescue (activation) was inconclusive: 28.5% [activator].
In the case of Cc1cc(Nc2nc(Cl)c(Cl)cc2Cl)n(-c2ccccc2)n1, the Potency is reported as active: 17.8 µM.
For COc1ccc(CNCCC(c2ccc3c(c2)OCO3)c2ccccc2OC)cc1 (stereo not given), the “growth rescue (activation)” value was inactive: 21.3%.
With COc1cc(OC)c2ccc(=O)oc2c1C(CCN1CCCCC1)c1ccc(N(C)C)cc1 (stereo not given) the “growth rescue (activation)” value was inactive: 5.63%.
For CCCN1C(=O)/C(=C/c2ccc(C)s2)NC1=S, the Potency was active: 11.2 µM.
With O=C(CCn1nnc(-c2cccs2)n1)N1CCc2ccccc2C1 the Potency was inconclusive [activator, partial curve, poor fit].
With Cc1cccn2c(=O)c(C(=O)NCCc3ccccc3)cnc12 the Potency was inconclusive [activator, partial curve].
In the case of CC1(Cc2ccc(F)cc2)C(=O)Nc2c(Cl)cccc21 (stereo not given), the Potency is reported as active: 28.2 µM.
With CC1=C(C(=O)N2CCOCC2)CC(CC(=O)NC2CCCCC2)C(=O)N1Cc1ccc(F)cc1 (stereo not given) the “growth rescue (activation)” value was inactive: 21.8%.
With CCn1c2ccccc2c2cc(NS(=O)(=O)c3ccccc3C)ccc21 the Potency was inconclusive [activator, partial curve].
In the case of CC(CNC(=O)c1nnc(Cc2ccc(F)cc2)o1)c1ccccc1 (stereo not given), the Potency is reported as inconclusive [activator, partial curve, poor fit].
In the case of Cc1sc2ncnc(SCC(=O)NC(C)C(C)C)c2c1C (stereo not given), the “growth rescue (activation)” value is reported as inactive: 17.2%.
For COc1ccc(N2CCN(Cc3nc4c(c(=O)[nH]c(=O)n4C)n3CC(C)C)CC2)cc1, the “growth rescue (activation)” value was inactive: -3.39%.
In the case of Cc1[nH]c2ccccc2c1SCC(=O)N1CCCCC1, the Potency is reported as inconclusive [activator, full curve, poor fit].
For C(=C\c1nc(-c2ccccc2)no1)/c1ccccc1, the “growth rescue (activation)” value was inactive: 20.1%.
For COCc1cc(C)nc(SCc2ccc(F)cc2)c1C#N, the Potency was inconclusive [activator, partial curve].
In the case of CC(NC(=O)CSc1cccc(C(F)(F)F)c1)c1ccccc1 (stereo not given), the Potency is reported as inconclusive [activator, single point].
In the case of O=C(c1ccc(Br)cc1)C(CN1CCOCC1)c1ccccc1 (stereo not given), the growth rescue (activation) is reported as inconclusive: -68% [activator].
With O=C(Nc1cccn(Cc2c(Cl)cccc2Cl)c1=O)c1c(Cl)cccc1Cl the Potency was active: 10 µM.
With CC(=O)Nc1cccc(Nc2ccc(C#N)cc2)c1 the Potency was inconclusive [activator, partial curve].

Reference: PubChem BioAssay AID652104 (National Center for Advancing Translational Sciences (NCATS), 2013)
Potency is the fitted concentration of half-maximal effect; tags give direction and shape of the fitted curve.
